# Experimental data as given in paper PMC4336329 (PLoS ONE, 2015).
# In all, about 310,000 compounds went through this assay and about 14,000 (4.5%) showed an effect of 50% or more. The effect is printed as a negative number. Some of the results follow.
# Biological target: human ether-à-go-go-related gene (hERG) potassium channel (human, UniProt Q12809)
# Assay: primary screen, population patch clamp on CHO cells stably expressing hERG
# 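Further: peak tail current of the secondary pulse compared with the same well before compound.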
# Chain of human ether-à-go-go-related gene (hERG) potassium channel (Q12809 whole entry, looked up): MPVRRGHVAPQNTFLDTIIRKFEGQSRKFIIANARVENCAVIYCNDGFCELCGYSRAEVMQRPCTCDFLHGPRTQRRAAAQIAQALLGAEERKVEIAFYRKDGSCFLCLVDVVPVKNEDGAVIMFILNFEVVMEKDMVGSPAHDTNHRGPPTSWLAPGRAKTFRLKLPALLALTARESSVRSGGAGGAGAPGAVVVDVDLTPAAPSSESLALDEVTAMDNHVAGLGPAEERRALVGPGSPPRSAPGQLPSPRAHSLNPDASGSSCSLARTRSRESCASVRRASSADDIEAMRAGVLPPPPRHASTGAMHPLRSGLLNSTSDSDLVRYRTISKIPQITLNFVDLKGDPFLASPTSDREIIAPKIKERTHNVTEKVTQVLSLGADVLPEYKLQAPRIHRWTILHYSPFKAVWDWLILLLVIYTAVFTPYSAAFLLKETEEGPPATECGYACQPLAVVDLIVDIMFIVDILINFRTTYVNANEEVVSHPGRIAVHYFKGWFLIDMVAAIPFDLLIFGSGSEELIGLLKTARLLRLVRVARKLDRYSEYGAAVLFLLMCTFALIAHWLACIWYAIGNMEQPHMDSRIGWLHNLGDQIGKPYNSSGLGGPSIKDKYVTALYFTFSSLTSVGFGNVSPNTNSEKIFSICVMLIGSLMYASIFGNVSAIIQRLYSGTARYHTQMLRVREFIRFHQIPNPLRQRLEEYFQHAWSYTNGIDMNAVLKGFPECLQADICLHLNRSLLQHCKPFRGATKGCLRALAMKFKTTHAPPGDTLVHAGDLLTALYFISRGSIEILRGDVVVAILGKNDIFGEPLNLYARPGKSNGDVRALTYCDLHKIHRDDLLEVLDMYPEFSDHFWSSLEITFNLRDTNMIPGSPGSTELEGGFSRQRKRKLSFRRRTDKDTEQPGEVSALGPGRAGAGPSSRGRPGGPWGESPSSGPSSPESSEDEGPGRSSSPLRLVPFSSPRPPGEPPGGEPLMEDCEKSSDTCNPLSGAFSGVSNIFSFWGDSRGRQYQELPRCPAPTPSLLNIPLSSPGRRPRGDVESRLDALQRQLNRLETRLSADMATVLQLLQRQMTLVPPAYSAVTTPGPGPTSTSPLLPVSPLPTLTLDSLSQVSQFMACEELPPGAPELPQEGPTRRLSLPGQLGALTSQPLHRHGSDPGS
row,Compound,"hERG current change (%, negative = inhibition) at 10uM [%]"
1,CCC(CC)NC(=O)CSc1nnc(-c2ccc(OC)cc2)n1C(C)C,-12.4
2,CN(CC(=O)Nc1c(Cl)cccc1Cl)C(=O)c1ccncc1,19.4
3,O=C(Nc1ccc(N2CCOCC2)cc1)C1CC(=O)N(c2ccc(Cl)cc2)C1 (stereo not shown),2.53
4,COc1ccc(Cc2[nH]n3c(=O)c(Cl)c(C)nc3c2-c2ccccc2)cc1,12.5
5,N/C(=N\NC(=O)Nc1ccc(Cl)cc1)c1ccccn1,-35.5
6,Cc1oc(-c2ccc(Cl)cc2)nc1CS(=O)CC(=O)NCc1ccccn1 (stereo not shown),-10.7
7,Cc1nnc(N(Cc2ccco2)C(=O)c2cccc(C#N)c2)s1,-1.98
8,O=C(c1ccc(F)cc1)C1CCN(C(=S)Nc2ccccc2)CC1,-28.8
9,COc1ccc(C2C3=C(CCCC3=O)Nc3nc(C(F)(F)F)nn32)cc1OC (stereo not shown),4.17
10,N#Cc1cccnc1N1CCN(C(=O)COCC(=O)O)CC1,9.97
11,COCC(C)n1c(C)cc(C(=O)COC(=O)c2ccc(N3CCCC3=O)cc2)c1C (stereo not shown),11.6
12,Cc1noc(C)c1S(=O)(=O)N1CCC(C(=O)N2CCN(c3ccc(Cl)cc3)CC2)CC1,-51.7
13,CCOc1cc(/C=C2\SC(=S)N(NS(=O)(=O)c3ccc(C)cc3)C2=O)ccc1O,-27.7
14,Cc1noc(C)c1CN1C(=O)c2ccc([N+](=O)[O-])cc2C1=O,0.754
15,Cc1cc(C)c(NC(=O)CN2C(=O)NC3(CCCc4ccccc43)C2=O)c(Cl)c1 (stereo not shown),1.14
16,COC(=O)C(/C=N/O)NC(=O)c1ccccc1 (stereo not shown),4.38
17,COc1ccc(N2CCN(C(=O)CSc3nc4cc(OC)c(OC)cc4cc3C#N)CC2)cc1,-22.2
18,CCCCN(C)CCCN1C(=O)C2C(C(=O)Nc3cccc(OC)c3)C3C=CC2(O3)C1C(=O)NC1CCCCC1C (stereo not shown),-21.6
19,CCOC(=O)CSc1ncnc2c1cnn2-c1ccc(Cl)cc1,8.88
20,COc1ccc(NC(=O)CSc2nnc(CN3CCOCC3)n2-c2ccccc2)cc1Cl,-40.7
21,N#C/C(=C\c1cccs1)C(=O)Nc1ccccn1,2.39
22,O=C(NCCc1ccccc1)C(=O)NCC1OCCCN1S(=O)(=O)c1ccc(F)cc1 (stereo not shown),-17.1

row,Compound,"hERG current change (%, negative = inhibition) at 10uM [%]"
1,CC(C)CNC1=C(C(=S)Nc2ccccc2)C(=O)CC(C)(C)C1,6.14
2,CCOc1ccc(C2NCCc3cc(OC)c(OC)cc32)cc1OC (stereo not shown),12.3
3,CN1CCN(C(=O)C2(NC(=O)NCc3ccccc3)CCCCC2)CC1,13.2
4,NC(=O)CC(NC(=O)Cc1cccc2ccccc12)c1ccc(NC2CCCCCCC2)c([N+](=O)[O-])c1 (stereo not shown),6.61
5,COc1ccc(-c2csc(NC3OC(=O)c4c3ccc(OC)c4OC)n2)cc1OC (stereo not shown),9.71
6,Cc1cccc(C)c1OCC(N)C(C)C.I (stereo not shown),-8.48
7,Cc1ccc(N2C(=NC(=O)c3ccccc3)SC3CS(=O)(=O)CC32)cc1 (stereo not shown),10.8
8,CC(C)n1nnnc1SCC(=O)c1ccc2c(c1)OCCO2,5.65
9,O=C(CC1c2ccccc2Oc2ccccc21)N1CCN(c2ccccn2)CC1,-6.59
10,COc1ccc2cc(CCNC(=O)c3ccc4c(c3)OCO4)c(=O)[nH]c2c1,-11.9
11,C#CCOCCOCCOCCNc1nc(N2CCOCC2)nc(N2CCN(C(=O)Cn3cc(CC(C)O)nn3)CC2)n1 (stereo not shown),-1.31
12,CN(Cc1ccccc1OCCO)CC1CCCN(CCc2ccc(Cl)cc2)C1 (stereo not shown),-66.9
13,O=C(C1CCCN(S(=O)(=O)c2cccc3nonc23)C1)N1CCN(c2ccccc2Cl)CC1 (stereo not shown),-18.4
14,CC(C)CC(=O)NC(NCC1CCCO1)C(Cl)(Cl)Cl (stereo not shown),-2.53
15,O=C(O)C1C2CC2CN1C(=O)c1ccc(Cl)cc1 (stereo not shown),17.4
16,Cl.c1ccc(C2NCc3ccccc3-n3cccc32)cc1 (stereo not shown),-9.86
17,O=C(COC(=O)/C=C/c1ccco1)NC1CCCCC1,5.33
18,COc1ccc(Cl)cc1NC(=O)CN(C)C(=O)Cc1n[nH]c(=O)c2ccccc12,-13.7
19,CSCCC(NS(=O)(=O)c1ccc(Cl)cc1)C(=O)OCc1cccc(Cl)c1 (stereo not shown),2.72
20,Cc1csc(NC(=O)CSc2ccc(-c3ccccc3)nn2)n1,-66.9
21,COc1cccc(C(N)=O)c1OC(=O)Cc1ccccc1F,9.25
22,COC(=O)c1c(NC(=O)Cc2ccccc2)sc2c1C(C(=O)OC)CC2 (stereo not shown),-17.1

row,Compound,"hERG current change (%, negative = inhibition) at 10uM [%]"
1,Cc1ccc2c(c1)CCCN2C(=O)Nc1ccc2c(c1)OCO2,11.2
2,CN1CCN(C(CNS(=O)(=O)c2ccc(F)cc2)c2cccnc2)CC1 (stereo not shown),-7.43
3,O=C(COc1ccccc1[N+](=O)[O-])N/N=C/c1ccncc1,3.46
4,CC12CCC(C(=O)N(CC(O)CN3CCN(Cc4ccccc4)CC3)C1=O)C2(C)C.Cl (stereo not shown),-6.03
5,CCOC(=O)c1c(O)cc(C)cc1Nc1ccccc1,10.6
6,Cn1c(SCC(=O)N2CCc3ccccc32)nnc1C1CC1,15.1
7,Cc1ccc(N(CC(=O)NC(C)c2ccccc2)S(=O)(=O)c2cccs2)cc1 (stereo not shown),2.82
8,CCN1CCN(c2ccc(NC(=O)c3cccnc3)cc2Cl)CC1,-16.8
9,O=C(COC(=O)c1ccc2c(c1Cl)C(=O)c1ccccc1C2=O)NC1CC1,8.74
10,Cc1ccc(NC(=O)C2CCCN(C(=O)c3ccc(Cl)cc3)C2)c(C)c1 (stereo not shown),-59
11,CCOc1ccc(N2C(=O)S/C(=C\c3ccc(O)c(OCC)c3)C2=O)cc1,5.06
12,CCn1c(COc2ccccc2)nnc1SCC(=O)NCc1ccco1,-4.11
13,N#Cc1ccc(C23CC4(C2)[C@H](CN(Cc2ccc(-c5ccccc5)cc2)[C@@H]4c2ccccc2)C3c2ccc(C(F)(F)F)cc2)cc1 (stereo partly shown),6.84
14,Cc1onc(-c2ccccc2Cl)c1C(=O)Nc1nnc(-c2ccc(Br)cc2)s1,16.2
15,O=c1c2c(n3nnnc3n1-c1ccccc1)-c1ccccc1CC21CCCC1,7.98
16,CCCCCCCn1c(NC(=O)CC)nc2ccccc21,-37.3
17,O=C(NNC1CC(=O)N(c2ccccc2)C1=O)c1cccnc1 (stereo not shown),18.6
18,COC(=O)c1cc(NS(=O)(=O)c2ccc(NCc3cccnc3)c([N+](=O)[O-])c2)cc(C(=O)OC)c1,5.61
19,COc1cccc(CNC(=O)CCC2CCCN(C(=O)c3cccc(Cl)c3)C2)c1 (stereo not shown),-20.9
20,Cc1cccc(N(CC(=O)N2CCc3ccccc3C2)S(C)(=O)=O)c1C,1.47
21,Cc1cccc(NC(=O)C(NS(=O)(=O)c2ccc3c(c2)CCC(=O)N3)c2ccccc2)n1 (stereo not shown),-12.9
22,COc1cccc(N(C(=O)C2COc3ccccc3O2)C(C(=O)NC2CCCCC2)c2ccc(O)cc2)c1 (stereo not shown),3.39

row,Compound,"hERG current change (%, negative = inhibition) at 10uM [%]"
1,C(=C\c1ccc(/C=C/c2ccccc2)nn1)/c1ccccc1,26.1
2,CCOc1ccc(S(=O)(=O)N2CCC(C(=O)N3CCc4ccccc4C3)CC2)cc1,-26.1
3,CCC1=NN(C(=O)c2ccccc2Br)C(O)(c2ccc(Br)cc2)C1 (stereo not shown),25.2
4,O=C(Nc1cccc(O)c1)C(=O)Nc1ccccn1,9.79
5,COc1ccc(-c2c(=O)n(OC)c3ccccc3[n+]2[O-])cc1OC,23.5
6,Cc1ccc(C(=O)C(C)OC(=O)C2=COCCO2)cc1C (stereo not shown),-3.75
7,N#Cc1ccc(-c2ccco2)nc1SCC(=O)c1ccc(Cl)cc1,15.3
8,COc1ccc(CCn2c(=N)c(C(=O)NC3CCCC3)cc3c(=O)n4cccc(C)c4nc32)cc1,-77.8
9,CC(=O)c1c(C)[nH]c(C(=O)OC2CCCCC2=O)c1C (stereo not shown),12
10,COC(=O)C1=C(c2ccc(C(C)=O)cc2)C[C@@H]2CC[C@H]1N2C(=O)NCCCOC(C)C,1.03
11,CC(C)C(=O)NCCc1nc2ccccc2n1CCOc1ccccc1,-15.1
12,OCCNCC(O)Cn1c2ccccc2c2ccccc21 (stereo not shown),10.2
13,Cc1c(CCC(=O)N2CCC(C(=O)O)CC2)c(=O)oc2cc3oc4c(c3cc12)CCCC4,11.8
14,O=C(N/N=C/c1ccccc1)c1ccc2c(c1)OCO2,-1.44
15,COc1ccc(C(=O)OCC2CC(c3ccccc3)N(C)O2)cc1 (stereo not shown),-17.5
16,Cc1cccc(NC(=O)c2ccc(Cl)c(S(=O)(=O)N3CCCCCC3)c2)n1,-25.1
17,CCCC/C(=N\NC(=O)c1ccc(Br)o1)c1ccccc1,10.5
18,CC(C)CN1C(=O)c2ccc(C(=O)Nc3ccccn3)cc2C1=O,-14.7
19,CC(=O)NCCC(=O)Nc1ccc(C(N)=O)cc1,3.52
